Out of some 310,000 compounds screened, about 14,000 (4.5%) showed an effect of 50% or more. The effect is printed as a negative number. The list shows a part of the results.
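Note: peak tail current of the secondary pulse compared with the same well before compound.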

For this experiment, the target named is human ether-à-go-go-related gene (hERG) potassium channel (human, UniProt Q12809). In words: primary screen, population patch clamp on CHO cells stably expressing hERG.
Chain of human ether-à-go-go-related gene (hERG) potassium channel (Q12809 whole entry, looked up): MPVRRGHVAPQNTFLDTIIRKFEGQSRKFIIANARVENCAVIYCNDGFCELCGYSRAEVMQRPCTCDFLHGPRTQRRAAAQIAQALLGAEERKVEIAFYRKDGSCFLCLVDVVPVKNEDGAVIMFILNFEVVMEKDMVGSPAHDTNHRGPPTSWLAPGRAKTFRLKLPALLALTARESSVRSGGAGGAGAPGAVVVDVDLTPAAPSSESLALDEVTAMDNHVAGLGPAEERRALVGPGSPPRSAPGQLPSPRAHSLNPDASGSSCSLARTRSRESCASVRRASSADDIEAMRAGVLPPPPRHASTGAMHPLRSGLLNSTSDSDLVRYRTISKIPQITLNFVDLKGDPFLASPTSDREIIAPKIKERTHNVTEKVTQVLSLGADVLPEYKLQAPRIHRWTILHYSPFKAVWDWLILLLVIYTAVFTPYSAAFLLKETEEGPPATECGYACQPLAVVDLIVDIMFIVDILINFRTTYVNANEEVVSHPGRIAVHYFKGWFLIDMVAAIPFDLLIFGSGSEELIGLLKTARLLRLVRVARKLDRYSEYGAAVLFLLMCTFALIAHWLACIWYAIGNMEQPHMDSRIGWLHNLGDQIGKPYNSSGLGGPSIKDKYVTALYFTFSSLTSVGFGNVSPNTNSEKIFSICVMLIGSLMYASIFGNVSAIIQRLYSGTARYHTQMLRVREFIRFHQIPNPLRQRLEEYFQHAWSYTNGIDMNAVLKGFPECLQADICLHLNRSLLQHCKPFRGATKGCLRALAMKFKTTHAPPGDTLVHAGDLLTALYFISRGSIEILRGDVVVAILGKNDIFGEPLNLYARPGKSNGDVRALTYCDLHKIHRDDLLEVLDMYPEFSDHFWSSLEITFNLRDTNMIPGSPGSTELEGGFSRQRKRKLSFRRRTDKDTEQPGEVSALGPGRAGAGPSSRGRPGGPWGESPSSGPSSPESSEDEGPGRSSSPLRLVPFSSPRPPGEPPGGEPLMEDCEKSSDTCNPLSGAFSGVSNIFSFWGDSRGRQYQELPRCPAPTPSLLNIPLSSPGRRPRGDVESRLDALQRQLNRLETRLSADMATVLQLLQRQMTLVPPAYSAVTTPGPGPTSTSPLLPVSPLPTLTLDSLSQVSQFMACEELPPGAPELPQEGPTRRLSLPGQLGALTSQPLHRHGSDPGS
Regarding `O=C(O)c1ccc2c(c1)ncn2C1CCCCCC1`, the “hERG current change (%, negative = inhibition) at 10uM” value was found to be 12.6%.

As for `O=C(O)c1cccc(NC(=O)N2C[C@H]3C[C@@H](C2)c2cccc(=O)n2C3)c1`, the “hERG current change (%, negative = inhibition) at 10uM” value is listed as 8.44%.

With `COc1ccccc1N1CC(C(=O)Nc2nnc(SCc3cccnc3)s2)CC1=O` (centres unmarked), the “hERG current change (%, negative = inhibition) at 10uM” value came to 10.8%.

Turning to `COC(=O)c1ccc(C(C(=O)NC2CCCCC2)N(C(=O)Cc2cccs2)C2CC2)cc1` (centres unmarked), the “hERG current change (%, negative = inhibition) at 10uM” value is listed as -4.11%.

Consider `CCOc1ccc(NC(=O)c2cc(Cl)nc3ccccc23)cc1`, for which the “hERG current change (%, negative = inhibition) at 10uM” value is given as 7.45%.

In the case of `CC(C)(C)c1ccc(NC(=O)N2CCCN(c3c(Cl)cncc3Cl)CC2)cc1`, the “hERG current change (%, negative = inhibition) at 10uM” value turned out to be 2%.

`CC(C)(C)C(=O)C(CO)(Oc1ccc(Cl)cc1)n1cncn1` (centres unmarked): the “hERG current change (%, negative = inhibition) at 10uM” value amounted to 9.33%.

Turning to `O=C(C1=C[C@@H](c2csc3ccccc23)C[C@@H](OCc2ccc(CO)cc2)O1)N1CCOCC1`, the “hERG current change (%, negative = inhibition) at 10uM” value is reported as -27.5%.

Regarding `COCCNC(=O)c1cc2sc3ccccc3c2s1`, the “hERG current change (%, negative = inhibition) at 10uM” value is recorded as -8.28%.

Turning to `O=C(O)CCc1ccc(-c2cccs2)n1NC(=O)c1ccccc1Br`, the “hERG current change (%, negative = inhibition) at 10uM” value is recorded as -7.06%.

For `COc1ccc(-c2cc(C(=O)NCCCN3CCCC3=O)c3ccccc3n2)cc1`, the “hERG current change (%, negative = inhibition) at 10uM” value is listed as -12%.

With `Cc1n[nH]c(=O)n1-c1cccc(C(F)(F)F)c1`, the “hERG current change (%, negative = inhibition) at 10uM” value stood at 17.9%.

Take `Cc1cc(O)cc(=O)n1Cc1ccccc1`: the “hERG current change (%, negative = inhibition) at 10uM” value turned out to be 12%.

Consider `Cc1ncc(CN2CCN(C3CCCC3)C(CCO)C2)s1` (centres unmarked), for which the “hERG current change (%, negative = inhibition) at 10uM” value is listed as 27.6%.

In the case of `COc1ccc(S(=O)(=O)NCCC(=O)N2CCCN(C)CC2)cc1`, the “hERG current change (%, negative = inhibition) at 10uM” value is on record as -5.77%.

On to `COc1ccc(OC)c(S(=O)(=O)Nc2c(C)nn(C)c2C)c1`, for which the “hERG current change (%, negative = inhibition) at 10uM” value came to 6.26%.

Turning to `Cn1c(CNC(=O)CNC(=O)c2cccc(F)c2)cc(=O)n(C)c1=O`, the “hERG current change (%, negative = inhibition) at 10uM” value is listed as 18%.

For the molecule `CCN(CC)CCCN(C(=O)c1cccs1)c1nc(-c2ccc(OC)cc2)cs1`, the “hERG current change (%, negative = inhibition) at 10uM” value was -83.3%.

Turning to `COc1ccc(-c2csc(N(CC3CCCO3)C(=O)c3ccco3)n2)cc1` (centres unmarked), the “hERG current change (%, negative = inhibition) at 10uM” value was -4.25%.

For `COc1ccc(CN2C(=O)c3ccccc3C2=O)cc1C(=O)Nc1ccccc1N1CCOCC1`, the “hERG current change (%, negative = inhibition) at 10uM” value is -10.7%.

With `COc1ccc(C2C(C(C)=O)=C(O)C(=O)N2c2nccs2)c(OC)c1` (centres unmarked), the “hERG current change (%, negative = inhibition) at 10uM” value was determined as 18.7%.

On to `Cc1[nH]c(=O)[nH]c(=O)c1S(=O)(=O)N1CCCC(C(=O)N2CCN(c3ccccc3Cl)CC2)C1` (centres unmarked), for which the “hERG current change (%, negative = inhibition) at 10uM” value was 3.25%.

As to `Cc1cc(-c2ccccc2)oc(=O)c1NC(=O)c1ccccc1`, the “hERG current change (%, negative = inhibition) at 10uM” value came to 3.11%.

With `CCSc1nnc(NC(=O)C2CCN(S(=O)(=O)c3cc(C(F)(F)F)ccc3Cl)CC2)s1`, the “hERG current change (%, negative = inhibition) at 10uM” value is on record as -4.37%.

As for `COCCNC(=O)Cn1cc(C(=O)c2cccs2)c2ccccc21`, the “hERG current change (%, negative = inhibition) at 10uM” value is 10.9%.

Turning to `CC(C)(C)c1cc(NC(=O)c2cc(F)c(F)c(F)c2F)no1`, the “hERG current change (%, negative = inhibition) at 10uM” value was determined as 3.93%.

As for `Cn1c(NC(=O)c2ccc(Cl)cc2)cc(=O)n(C)c1=O`, the “hERG current change (%, negative = inhibition) at 10uM” value was determined as 15.7%.

In the case of `CCC1(c2ccccc2)NC(=O)N(CC(=O)Nc2cc(C(F)(F)F)ccc2N2CCCC2)C1=O` (centres unmarked), the “hERG current change (%, negative = inhibition) at 10uM” value was 4.77%.

With `Cc1cc(=O)oc(C)c1C(=O)Nc1ccc(Cl)cn1`, the “hERG current change (%, negative = inhibition) at 10uM” value came out at 12.7%.

Regarding `COc1cc(C(=O)OCC(=O)c2ccc(S(=O)(=O)N3CCCCC3)cc2)cc(OC)c1OC`, the “hERG current change (%, negative = inhibition) at 10uM” value worked out at 1.54%.

As for `O=C(NCc1cccs1)Nc1cc(Cl)ccc1Cl`, the “hERG current change (%, negative = inhibition) at 10uM” value came to 11.9%.

`CCOC(=O)C1C(=O)CC(C)(O)C(C(=O)OCC)C1c1cccc(OC)c1` (centres unmarked): the “hERG current change (%, negative = inhibition) at 10uM” value is reported as -1.07%.

Take `Cc1onc(-c2ccccc2)c1-c1ccnn1S(=O)(=O)c1ccc(Cl)cc1`: the “hERG current change (%, negative = inhibition) at 10uM” value was determined as 9.3%.

With `COc1cccc(-c2c(C(=O)N/N=C(\C)c3cccs3)nnn2-c2nonc2N)c1`, the “hERG current change (%, negative = inhibition) at 10uM” value is listed as -5.54%.

With `CC1=CC(C)(C)N=C(Nc2nc(C)c3cc(C)cc(C)c3n2)N1`, the “hERG current change (%, negative = inhibition) at 10uM” value is on record as -63.5%.

Turning to `COC(=O)c1cc(S(=O)(=O)Nc2nn(C)c3cccc(F)c23)oc1C`, the “hERG current change (%, negative = inhibition) at 10uM” value came out at 23.3%.

In the case of `CCOC(=O)N1CCN(C(=O)CSc2ccc3nnc(-c4ccncc4)n3n2)CC1`, the “hERG current change (%, negative = inhibition) at 10uM” value is on record as -11%.

Take `COC(=O)/C=C1\SC(=Nc2ccc(Cl)c(Cl)c2)NC1=O`: the “hERG current change (%, negative = inhibition) at 10uM” value came out at 19.5%.

`COc1ccc(-c2cn3ccccc3n2)cc1[N+](=O)[O-]`: the “hERG current change (%, negative = inhibition) at 10uM” value is 6.33%.

As for `CC(C)c1ccc(NCCC(=O)c2ccc(Br)cc2)cc1`, the “hERG current change (%, negative = inhibition) at 10uM” value was found to be 12.1%.

Consider `COc1ccc(C(=O)COC(=O)c2cc(C)no2)c(OC)c1`, for which the “hERG current change (%, negative = inhibition) at 10uM” value stood at 12%.

Take `COc1ccc(NC(=O)CCCNC(=O)Cn2cnc3sc4c(c3c2=O)CCCC4)c(OC)c1`: the “hERG current change (%, negative = inhibition) at 10uM” value was 10.3%.

`CCOC(=O)N1CCN(c2c(NCCCN(CC)c3cccc(C)c3)c(=O)c2=O)CC1`: the “hERG current change (%, negative = inhibition) at 10uM” value is -32.1%.

Regarding `Cc1ccccc1/[N+]([O-])=C/c1ccncc1`, the “hERG current change (%, negative = inhibition) at 10uM” value was 15.4%.

With `Clc1ccc(-c2noc3c2-c2nc(Cc4cccc5ccccc45)sc2CC3)cc1`, the “hERG current change (%, negative = inhibition) at 10uM” value is listed as -1.72%.

Consider `CCC(=O)NCCc1nc2ccccc2n1Cc1ccccc1`, for which the “hERG current change (%, negative = inhibition) at 10uM” value was -5.53%.

For `CCOc1ccc(S(=O)(=O)N2CCCCC2)cc1NC(=O)C1COc2ccccc2O1` (centres unmarked), the “hERG current change (%, negative = inhibition) at 10uM” value came out at 15.3%.

Regarding `CC(C)N(C(=O)COC(=O)c1ccccc1C(=O)N1CCN(c2ccc(F)cc2)CC1)C(C)C`, the “hERG current change (%, negative = inhibition) at 10uM” value is -55.9%.

In the case of `Cc1cc(C(=O)NNC(=O)c2ccc(Cl)cc2)c2ccccc2n1`, the “hERG current change (%, negative = inhibition) at 10uM” value came to 0.225%.

Turning to `CCCC(=O)Nc1nc2c(C)c(Cl)ccc2s1`, the “hERG current change (%, negative = inhibition) at 10uM” value is reported as -0.25%.

For the molecule `CCCCCCCCS(=O)C1CS(=O)(=O)CC1O` (centres unmarked), the “hERG current change (%, negative = inhibition) at 10uM” value stood at 5.75%.

In the case of `COc1ccc(OC)c(C(Nc2ccccc2)P(=O)(OC(C)C)OC(C)C)c1` (centres unmarked), the “hERG current change (%, negative = inhibition) at 10uM” value was -14.1%.

In the case of `CCOc1ccc(NC(=O)Cn2nnc(C(=O)NCc3ccc4c(c3)OCO4)c2N)cc1`, the “hERG current change (%, negative = inhibition) at 10uM” value is 11.7%.

Take `Cc1nn(CC(O)c2ccccc2)c(C)c1Br` (centres unmarked): the “hERG current change (%, negative = inhibition) at 10uM” value is 1.15%.

With `Cc1ccc(NC(=O)C2C3C=CC4(O3)C2C(=O)N(CCCN2CCCCC2)C4C(=O)NC2CCCCC2)cc1Cl` (centres unmarked), the “hERG current change (%, negative = inhibition) at 10uM” value worked out at 16.3%.

With `Cc1nn(CC(=O)NNC(=S)Nc2ccccc2)c(C)c1[N+](=O)[O-]`, the “hERG current change (%, negative = inhibition) at 10uM” value was 10.8%.

Source of the values: paper PMC4336329 (PLoS ONE, 2015).
